PubChem BioAssay AID743279 (National Center for Advancing Translational Sciences (NCATS), 2014)
Values joined by “and” are separate entries in the source; they are usually repeats but may differ in a detail not shown here. Equal values may be shown once. The whole screen tested about 360,000 compounds, of which about 17,000 (4.7%) were called active. Inconclusive results, whose numbers are uncertain, are shown with a selection of clear calls. Cut-off read from the data, not from the text of the source: active = activity change below about -50%; inconclusive = mostly about -30% to -49%; inactive = weaker than that. A structure can be active in one record and inactive in another.

assay: qHTS for Inhibitors of Inflammasome Signaling: IL-1-beta AlphaLISA Primary Screen; conditions: THP-1 LPS/ATP IL-1B secretion, 16 h; at 57.5 µM, stronger effect = lower value
Summary of the method: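 THP-1 cells pretreated 1 hr with compounds (up to 57.5 uM final), then stimulated with LPS (250 ng/mL final) plus ATP (1.25 mM final); secreted IL-1B measured by AlphaLISA after 16 hr, decreased signal indicating inhibition.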
% is set by controls: 0 for no effect and ±100 for the full control effect.

| SMILES | activity change |
| --- | --- |
| O=C(CNC(=O)c1ccccc1)OCC(=O)N1N=C(c2ccc(Cl)cc2)CC1c1ccco1 (stereo not drawn) | inactive: -9.08% |
| COc1ccc(NC(=O)C2(C)CCN2Cc2ccccc2Cl)cc1OC (stereo not drawn) | inconclusive: -42% |
| COc1ccc(Cl)cc1C(=O)OCC(=O)c1ccc[nH]1 | inconclusive: -48.7% |
| CC1=C(C(=O)N(C)C)CC(CC(=O)NC2CC2)C(=O)N1Cc1ccc(C(C)(C)C)cc1 (stereo not drawn) | inactive: 20% |
| Cc1c(C(=O)N/N=C/c2ccccn2)nnn1-c1nonc1N | inconclusive: -30.4% |
| O=C(CC1C(=O)NCCN1C(=O)Nc1ccccc1)Nc1cc(Cl)ccc1Cl (stereo not drawn) | inconclusive: -43.9% |
| COc1cccc(OCCCN2CCN(S(=O)(=O)c3ccc(NC(C)=O)cc3)CC2)c1 | inconclusive: -33.5% |
| Cc1cccc(-c2nnc(SCC3CNC(=O)O3)n2-c2ccc(Cl)cc2)c1 (stereo not drawn) | inconclusive: -39.7% |
| Brc1ccc(-c2nn3c(-c4ccco4)nnc3s2)o1 | inconclusive: -31.6% |
| CC(C)C(NC(=O)c1ccccc1)c1nnc(SCC(=O)Nc2nccs2)n1C (stereo not drawn) | inconclusive: -34% |
| O=C(N/N=C/c1cccs1)c1cc(-c2ccc(Cl)s2)[nH]n1 | inconclusive: -36.7% |
| COc1ccccc1C(=O)NC(CCSC)C(=O)Nc1ccc(C)c(S(=O)(=O)N2CCOCC2)c1 (stereo not drawn) | inconclusive: -45% |
| Cc1ccc(-c2noc(CN(C(=O)c3cccs3)C(C)C)n2)cc1 | active: -78% |
| COc1cccc(C2(c3cccc(OC)c3)CC2C(=O)Nc2ccc(F)cc2)c1 (stereo not drawn) | inactive: 4.42% |
| Cc1cc(-c2nnco2)c(C)n1-c1ccc(F)cc1 | inconclusive: -34.8% |
| O=C(CC(=O)c1ccccc1)Nc1ccc(Cl)cc1 | active: -77.5% |
| COc1ccc(-c2nc3c(c(=O)[nH]c(=O)n3Cc3ccccc3)n2Cc2ccccc2)cc1 | inconclusive: -42.5% |
| CC(=O)Oc1ccc(C(=O)Nc2ccc(C3(C#N)CCCC3)cc2)cc1 | active: -59.4% |
| CC1(C)CC(=O)C=C(c2ccc(COC(=O)c3ccc(-c4ccccc4)cc3)cc2)C1=O | inactive: 14.5% |
| Cc1ccc(S(=O)(=O)N2CCN(CC(=O)NC3CCCc4ccccc43)CC2)cc1C (stereo not drawn) | inactive: -18.8% and active: -54% |
| CP(C)(=O)CCP(=O)(c1ccccc1)c1ccccc1 | inactive: 13.6% |

| SMILES | activity change |
| --- | --- |
| O=[N+]([O-])c1cc(C(F)(F)F)ccc1NC1CCN(Cc2ccccc2)CC1 | active: -55.4% |
| CCOC(=O)C1CCN(C(=O)c2sccc2Cl)CC1 | inactive: 9.81% |
| CC1CC(C)CN(CCOc2ccc(Cl)cc2Cl)C1 (stereo not drawn) | active: -67.9% |
| COc1cccc(-c2nnc3n2N=C(c2cc(OC)ccc2OC)CS3)c1 | inconclusive: -38.7% |
| CC(/C=N/NC(=O)C(O)c1ccccc1)=C\c1ccccc1 (stereo not drawn) | inconclusive: -38.5% |
| Cc1ccc(-n2nnnc2Sc2nc([N+](=O)[O-])nn2C)c(C)c1 | inconclusive: -30.4% |
| COC(=O)C1CC2=C(CCCC2=O)N(c2ccccc2)C1=O (stereo not drawn) | inactive: 21.7% |
| COc1ccc(Nc2nc(-c3c(C)nc4ncccn34)cs2)cc1 | active: -60.9% |
| CCC(=O)O/N=C(\N)c1ccc(Oc2cc(C)c(Cl)c(C)c2)c([N+](=O)[O-])c1 | inactive: -18.2% |
| CC(C)(CNC(=O)c1cccc(F)c1)CNC(=O)c1cccc(F)c1 | inactive: 0.532% |
| COc1cc2nc(N(CCCN(C)C)C(=O)c3ccc(S(=O)(=O)N4CCc5ccccc5C4)cc3)sc2cc1OC | active: -96.2% |
| O=C(/C=C/c1ccc(-c2ccccc2[N+](=O)[O-])o1)c1ccc(F)cc1 | active: -99.3% |
| C/C(=N\Nc1cccc(Cl)c1)c1ccc(-n2ccnc2)cc1 | inconclusive: -30.3% |
| O=C(Cn1nc(C(=O)O)c2ccccc2c1=O)NCC1CCCO1 (stereo not drawn) | inactive: 16.3% |
| O=C(CCn1c(=O)[nH]c2ccsc2c1=O)N1CCN(Cc2ccc3c(c2)OCO3)CC1 | inconclusive: -34.2% |
| CCCCN(C(=O)CSc1nnc(-c2ccc(OC)cc2)n1CC)c1c(N)n(Cc2ccccc2)c(=O)[nH]c1=O | active: -59.9% |
| CC(=O)c1cccc(NC(=O)c2ccc(-c3ccccc3[N+](=O)[O-])o2)c1 | inconclusive: -46.7% |
| CCCc1cnc(Nc2nc(C(N)Cc3ccc(OC)cc3)cs2)nc1 (stereo not drawn) | inconclusive: -46.3% |
| CCOC(=O)CNC(=O)CCc1nnc2ccc(N3CCC(C)CC3)nn12 | inactive: -7.63% |
| CCC(C)NC(=S)N(CCc1ccccc1)Cc1cc2cc(OC)c(OC)cc2[nH]c1=O (stereo not drawn) | inconclusive: -47.7% |
| C1=CCC(CN2CCN(C3CCCCCC3)CC2)CC1 (stereo not drawn) | inactive: 46.5% |

| SMILES | activity change |
| --- | --- |
| CCOC(=O)COc1ccc(S(=O)(=O)N2CCN(c3ccc(OC)cc3)CC2)cc1 | inconclusive: -47.9% |
| O=C(CCNS(=O)(=O)c1ccc(Br)cc1)NC1CCN(Cc2ccccc2)CC1 | inconclusive: -36.1% |
| COc1cccc(CNC(=O)c2ccc(CS(=O)c3ccccc3)o2)c1 (stereo not drawn) | inactive: 4.63% |
| Cc1cc(CSc2ccccc2)ccc1NC(=O)c1ccc(Cl)c([N+](=O)[O-])c1 | inconclusive: -39.9% |
| Cc1cc(S(=O)(=O)NCc2ccccc2)ccc1OCC(=O)Nc1cccc([N+](=O)[O-])c1 | inconclusive: -31.9% |
| CN(Cc1ccccc1F)C(=O)COc1ccc(C(=O)c2ccccc2)cc1 | inconclusive: -38.6% |
| COc1ccc(S(=O)(=O)Nc2ccccc2N2CCOCC2)cc1[N+](=O)[O-] | inactive: 17.6% |
| O=C1c2ccccc2S(=O)(=O)c2cc(N3CCN(C(=O)c4ccccc4)CC3)ccc21 | active: -67.2% |
| COc1ccc(C2c3ccc4ccccc4c3Oc3ncn(CCN(C)C)c(=N)c32)cc1 (stereo not drawn) | active: -97.8% |
| CC(C)(C)NC(=O)C(c1ccc(F)cc1)N(Cc1cccs1)C(=O)c1ccc(CN2CCOCC2)o1 (stereo not drawn) | active: -52.7% |
| CCCCCNCC(=O)Nc1cccc(C(=O)Nc2cccc(C(F)(F)F)c2)c1 | active: -101% |
| CC(C)C[C@H]1CNC(=O)C(=O)N1C[C@H]1CCCN1C[C@H](CC(C)C)N1C[C@H](CC(C)C)N(CCc2ccccc2)C(=O)C1=O | active: -74.7% |
| O=C(O)c1cn(-c2ccc(F)c(F)c2)c2c(F)c(F)c(F)c(F)c2c1=O | active: -96.4% |
| O=C(c1ccc(NS(=O)(=O)c2ccc3c(c2)OCCO3)cc1)N1CCCCC1 | inconclusive: -38.5% |
| O=C(NNC(=O)c1ccccc1O)c1ccc(Cl)cc1 | inactive: 243% |
| N#Cc1c(/N=C/c2cc(Br)cs2)sc2c1CCC2 | inconclusive: -32.9% |
| O=c1cc(-c2ccccc2)cc(-c2ccccc2)n1CCCO | inconclusive: -37.8% |
| O=C(c1cc(COc2cccc3cnccc23)on1)N1CCC(c2ccccc2Cl)C1 (stereo not drawn) | inactive: -1.19% |
| Clc1ccc(-c2ccc(/C=N/Nc3cc(N4CCOCC4)nc(N4CCOCC4)n3)o2)cc1 | inconclusive: -39% |
| COc1cc(C(=O)Nc2sc3c(c2C(=O)NCc2ccco2)CCCC3)cc(OC)c1OC | inconclusive: -30.7% |
| COc1ccc(-c2cc(C(F)F)n3ncc(C(=O)N4CCc5ccccc5C4)c3n2)cc1 | inconclusive: -34.1% |

| SMILES | activity change |
| --- | --- |
| CCOC(=O)c1sc(NC(=O)C2CCCCC2)nc1C | inconclusive: -36.9% |
| CCOC(=O)[C@]12CCC=C1N(Cc1ccc3c(c1)OCO3)C(=O)[C@H](CC(=O)NCC13CC4CC(CC(C4)C1)C3)C2 | inconclusive: -43.6% |
| O=C(NCc1ccco1)C1(S(=O)(=O)c2ccccc2)CC=CC1 | inactive: 35% |
| O=C(c1ccc2c(=O)n3c(nc2c1)CCCCC3)N1CCN(C(c2ccccc2)c2ccccc2)CC1 | inconclusive: -49.1% |
| COc1ccc2[nH]c(=O)c(CN(Cc3ccccc3OC)Cc3nnnn3CC3CCCO3)cc2c1 (stereo not drawn) | inconclusive: -33.1% |
| COc1ccc(NC(=O)CCNC(=O)c2ccco2)c(OC)c1 | inactive: -13.7% |
| COc1ccc(NC(=S)N(Cc2ccc(N(C)C)cc2)Cc2ccco2)cc1 | active: -76.2% |
| Clc1cccc(Cl)c1COn1nnc2ccccc21 | inactive: 16.6% |
| CN(Cc1ccccc1)C(=O)CSc1nc2c(c(C(F)(F)F)n1)CCc1ccccc1-2 | inconclusive: -34.9% |
| NC(=S)NN=C1c2cc(OCCN3CCOCC3)ccc2-c2ccc(OCCN3CCOCC3)cc21 | active: -96% |
| Cc1ccc(CN2CC(C(=O)Nc3ccc(F)c([N+](=O)[O-])c3)CC2=O)cc1 (stereo not drawn) | inconclusive: -34.9% |
| COC(=O)C(C)N1C(=O)S/C(=C/c2cc(C)n(C(C)C)c2C)C1=O (stereo not drawn) | inactive: -12.1% |
| O=C(Nc1cc(S(=O)(=O)Nc2ccc(Cl)cc2)ccc1N1CCCCC1)c1ccc(F)cc1Cl | inconclusive: -39.4% |
| CN(C(=O)c1ccc(Cl)c([N+](=O)[O-])c1)C1(C)CCS(=O)(=O)C1 (stereo not drawn) | inconclusive: -48.1% |
| CCOC(=O)[C@H]1[C@H]2COc3ccc(Cl)cc3[C@@H]2N2C(=O)c3ccc(F)cc3NC(=O)[C@@]12C | inconclusive: -34.9% |
| COc1ccc(/C=C/C(=O)N2CCN(S(=O)(=O)c3ccccc3Br)CC2)cc1OC | inconclusive: -32% |
| Nc1nonc1-n1nnc(C(=O)N/N=C/c2cc(Br)cs2)c1-c1ccccc1 | active: -91.5% |
| Cc1ccc(NC(=O)CCl)c(C)c1 | active: -98.6% |
| C=CCn1c(SCC(=O)c2ccc(Br)cc2)nnc1C(CC(C)C)NC(=O)c1cccs1 (stereo not drawn) | inactive: -0.0256% |
| Cc1cc(NC(=O)CSc2cn(CCNC(=O)c3ccc(F)cc3)c3ccccc23)no1 | inconclusive: -44.1% |
